From publication PMC12136788
Some of the results follow.

T1: UNK ZnF1-3 (human, UniProt Q9C0B0 31-174)
T1 sequence: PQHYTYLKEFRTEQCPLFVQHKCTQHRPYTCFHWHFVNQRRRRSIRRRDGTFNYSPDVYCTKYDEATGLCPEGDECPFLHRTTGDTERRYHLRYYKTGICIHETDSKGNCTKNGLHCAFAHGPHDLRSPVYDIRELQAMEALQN

B1: chr7:7679991:7679992:-_ENSG00000106399_ENST00000396682|hu_hu|hu_hu_hu_mus_False|68_78 (ssRNA)
RNA: GGGAGUUCUACAGUCCGACGAUCUGGGAUGAAUCUUUUCCAGCUUCCCCACGAAGCAGACAGGCUUGUCGAUGAAUUGUGGUAACAUGCUGGCGUUGACGCGCGCUUUGGGGAGCUGCAUUAUGUCCUCCAUGAUUCUGCCGCCAACAGAGGAUUGAGCAUCA
B2: chr5:128440902:128440903:+_ENSG00000066583_ENST00000173527|hu_mus|hu_hu_hu_mus_True|8_58 (ssRNA)
RNA: GGGAGUUCUACAGUCCGACGAUCUUGAACGGUGCUGCCAAGUCCUUUGGGGUAUUGUUCCGUUAUGAUAACUGGAAUUCCUAAAAUCCGAGCUCCUUGCAACAGUCUCUGUCCCACACUAAUGAUGUCCCCAAAAUAUUUGAUCAACAGAGGAUUGAGCAUCA
B3: chr2:202488911:202488912:-_ENSG00000155755_ENST00000286196|hu_mus|hu_hu_hu_mus_False|8_78 (ssRNA)
RNA: GGGAGUUCUACAGUCCGACGAUCAUUGAAACAUUUUUCAUAAUCUCCAGUAGCAUUCAGUAUUAUAGUAACAAAAGCUCAAUUGUAAAUACAUGUAUCUUAUAAAAAUACACUUAAAAACACGAGUAAAAAUGGGAGGCGCCACAACAGAGGAUUGAGCAUCA
B4: 107884013_107888248_129_3pUTR_ENSMUSG00000027889_ENSMUST00000078912|mouse|control|control (ssRNA)
RNA: GGGAGUUCUACAGUCCGACGAUCACUGUAGCGGAGAGGCCCCCAGACCGCUUCGAGCUUCUGGAGCGGCAGCGGAAGCUUGCAGGCCGGCCCGCUUCUUAAAGGGAUAUUUGGCCUUGGACUUGCCUGGGCCAGGAUAGGAUGCAACAGAGGAUUGAGCAUCA
B5: 120328023_120328557_91_ncRNA_ENSMUSG00000057594_ENSMUST00000124970|mouse|control|control (ssRNA)
RNA: GGGAGUUCUACAGUCCGACGAUCCGAGCUCUCGGAUGGUGAUCUUCCUGUGGGCCACAAUGUCUGUAAGGUUGGUGCCCACCGUGGGCCGCGUCGGUGGGGGCUCUCCCAGGUCGCCUUUGCCAUCUCCGGAGCUCAGCUGUCCAACAGAGGAUUGAGCAUCA
B6: chr5:44151052:44151053:-_ENSMUSG00000039753_ENSMUST00000047857|mus_hu|FALSE|FALSE (ssRNA)
RNA: GGGAGUUCUACAGUCCGACGAUCGUCAGUCUGGGUAAGAUCCAGAUGCUCCAGGUUAGGACAAAGCUCUAAAAUCUGCCUAACCAUUUUGCUGGAAACUGCAGAGCUGUAUGCUAAUACUAAGGUUUUUACAGAAGUACCAACCAACAGAGGAUUGAGCAUCA

Each binder was assayed against T1, UNK ZnF1-3 (assay: nsRBNS (natural sequence RNA bind-n-seq); RBNS binding buffer (assumed for nsRBNS): 25 mM Tris pH 7.5, 150 mM KCl, 3 mM MgCl2, 0.01% Triton X-100, 500 ug/ml BSA, 20 U/ml SUPERase-In, 4 C; UNK is unkempt and MSI1 is Musashi-1; names of the RNAs are library labels; protein concentration not given here; high values mean tight binding).

Question: How did the binding signal turn out when B1 was run?
Answer: The binding signal was 0.618 enrichment R.

Question: For B2, which binding signal is on record?
Answer: Its binding signal is 0.967 enrichment R.

Question: B3 was tested. Which binding signal did it give?
Answer: The binding signal was 1.28 enrichment R.

Question: With B4 as the binder, how does the binding signal read?
Answer: The binding signal was 0.824 enrichment R.

Question: B5 was tested. Which binding signal did it give?
Answer: The binding signal was 0.72 enrichment R.

Question: Which binding signal does the source give for B6 here?
Answer: The binding signal was 1.17 enrichment R.
